Data on 1 molecule can be found in patent publication US8088574B2, “Poly(A) polymerase” (Wisconsin Alumni Research Foundation, priority 2007, dated 2012).

The target in the assay is PAPα (Homo sapiens, UniProt P51003). Nature of the assay: PAP assay with FLAG-PAPα isolated from tBHQ-treated cells. Type of assay: cell-based. The conditions noted are these: 100 μM tBHQ.
Sequence of PAPα (P51003 whole entry): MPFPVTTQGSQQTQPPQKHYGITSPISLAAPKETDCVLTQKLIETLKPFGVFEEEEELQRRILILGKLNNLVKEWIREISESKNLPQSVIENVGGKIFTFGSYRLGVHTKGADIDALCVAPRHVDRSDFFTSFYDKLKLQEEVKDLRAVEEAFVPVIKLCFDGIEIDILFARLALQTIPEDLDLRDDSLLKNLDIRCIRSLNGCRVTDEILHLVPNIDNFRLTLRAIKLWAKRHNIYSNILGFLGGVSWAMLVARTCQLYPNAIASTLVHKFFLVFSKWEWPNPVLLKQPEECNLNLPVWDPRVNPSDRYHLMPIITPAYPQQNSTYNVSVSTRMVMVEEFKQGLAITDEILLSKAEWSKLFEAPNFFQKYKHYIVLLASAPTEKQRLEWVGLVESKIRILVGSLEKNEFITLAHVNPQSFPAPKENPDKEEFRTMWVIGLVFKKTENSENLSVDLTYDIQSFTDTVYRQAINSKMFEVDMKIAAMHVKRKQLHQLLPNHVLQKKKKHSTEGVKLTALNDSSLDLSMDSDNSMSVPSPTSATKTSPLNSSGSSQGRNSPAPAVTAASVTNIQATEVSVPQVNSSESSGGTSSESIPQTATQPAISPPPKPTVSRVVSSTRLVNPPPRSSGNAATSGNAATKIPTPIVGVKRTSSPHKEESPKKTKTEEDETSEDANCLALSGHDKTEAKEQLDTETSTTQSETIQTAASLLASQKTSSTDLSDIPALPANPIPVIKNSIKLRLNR

For the molecule `CC(C)(C)c1cc(O)ccc1O` [tBHQ, tert-butylhydroquinone], the “activity of PAPα isolated from tBHQ-treated cells” value was “Neither polymerase-inactive Star-PAP nor PAPα showed any increase in activity”.
